Test in all cases: co-IP; anti-HA immunoprecipitates (12CA5 with protein A-Sepharose, or F7 anti-HA-agarose when probing for Mst3 or Mst4; 1.5 h, 4°C) of lysates (1% Nonidet P-40, 0.135 M NaCl, 10% glycerol, 20 mM Tris pH 8.0) of HEK293 cells transfected with HA-striatins; endogenous partners by immunoblot, partner/HA-striatin ratio by chemilumimager against wild type; 50 mM NaF and 100 nM okadaic acid in the lysis buffer in the phosphorylation experiments
Background: A western blot detects proteins with antibodies after separation by electrophoresis.

Test [1] concerns the target T1, HA-tagged Δ(70-116) striatin (human) (UniProt O43815).
T1 sequence: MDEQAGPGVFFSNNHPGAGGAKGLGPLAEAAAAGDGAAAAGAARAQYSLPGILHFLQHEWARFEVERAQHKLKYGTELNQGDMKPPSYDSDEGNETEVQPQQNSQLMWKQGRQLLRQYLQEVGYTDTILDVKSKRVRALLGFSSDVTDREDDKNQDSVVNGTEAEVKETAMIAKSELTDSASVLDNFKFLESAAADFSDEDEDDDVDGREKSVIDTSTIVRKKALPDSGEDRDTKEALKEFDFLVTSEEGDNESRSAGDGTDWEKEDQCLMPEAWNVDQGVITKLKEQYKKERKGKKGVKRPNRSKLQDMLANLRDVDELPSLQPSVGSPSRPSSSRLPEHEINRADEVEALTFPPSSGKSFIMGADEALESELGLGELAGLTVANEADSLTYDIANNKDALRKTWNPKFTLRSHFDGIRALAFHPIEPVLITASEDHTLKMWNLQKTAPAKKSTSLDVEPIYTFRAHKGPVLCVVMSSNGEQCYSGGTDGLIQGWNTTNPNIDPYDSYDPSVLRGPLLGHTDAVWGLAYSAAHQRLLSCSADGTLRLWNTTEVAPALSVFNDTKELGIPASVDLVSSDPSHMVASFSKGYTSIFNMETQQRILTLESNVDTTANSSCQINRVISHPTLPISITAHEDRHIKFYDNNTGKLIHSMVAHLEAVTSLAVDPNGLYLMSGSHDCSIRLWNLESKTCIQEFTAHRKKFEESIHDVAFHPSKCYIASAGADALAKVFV

In test [2] the target is T2, HA-tagged R100S/R101E striatin (human) (UniProt O43815).
T2 sequence: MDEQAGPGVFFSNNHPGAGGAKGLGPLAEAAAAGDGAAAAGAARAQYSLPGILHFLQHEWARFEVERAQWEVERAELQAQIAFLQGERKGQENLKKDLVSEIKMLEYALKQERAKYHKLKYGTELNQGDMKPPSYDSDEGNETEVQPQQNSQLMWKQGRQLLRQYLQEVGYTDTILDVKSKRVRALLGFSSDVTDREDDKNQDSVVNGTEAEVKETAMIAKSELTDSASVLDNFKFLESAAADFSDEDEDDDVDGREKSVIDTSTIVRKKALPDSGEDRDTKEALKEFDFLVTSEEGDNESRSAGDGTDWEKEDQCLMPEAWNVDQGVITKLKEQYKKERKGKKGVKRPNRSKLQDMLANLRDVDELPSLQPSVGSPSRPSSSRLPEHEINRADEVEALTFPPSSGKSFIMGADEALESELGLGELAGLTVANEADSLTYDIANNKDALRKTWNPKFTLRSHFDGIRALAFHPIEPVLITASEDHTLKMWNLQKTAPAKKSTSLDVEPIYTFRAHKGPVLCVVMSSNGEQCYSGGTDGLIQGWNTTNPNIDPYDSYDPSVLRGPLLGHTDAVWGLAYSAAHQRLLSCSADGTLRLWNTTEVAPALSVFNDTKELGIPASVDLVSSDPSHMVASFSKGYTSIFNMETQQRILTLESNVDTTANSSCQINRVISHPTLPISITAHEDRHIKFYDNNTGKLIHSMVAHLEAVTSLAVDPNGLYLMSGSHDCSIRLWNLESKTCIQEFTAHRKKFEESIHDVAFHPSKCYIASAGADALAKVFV

The target of test [3] is T3, HA-tagged Δ(115-149) striatin (human) (UniProt O43815).
T3 sequence: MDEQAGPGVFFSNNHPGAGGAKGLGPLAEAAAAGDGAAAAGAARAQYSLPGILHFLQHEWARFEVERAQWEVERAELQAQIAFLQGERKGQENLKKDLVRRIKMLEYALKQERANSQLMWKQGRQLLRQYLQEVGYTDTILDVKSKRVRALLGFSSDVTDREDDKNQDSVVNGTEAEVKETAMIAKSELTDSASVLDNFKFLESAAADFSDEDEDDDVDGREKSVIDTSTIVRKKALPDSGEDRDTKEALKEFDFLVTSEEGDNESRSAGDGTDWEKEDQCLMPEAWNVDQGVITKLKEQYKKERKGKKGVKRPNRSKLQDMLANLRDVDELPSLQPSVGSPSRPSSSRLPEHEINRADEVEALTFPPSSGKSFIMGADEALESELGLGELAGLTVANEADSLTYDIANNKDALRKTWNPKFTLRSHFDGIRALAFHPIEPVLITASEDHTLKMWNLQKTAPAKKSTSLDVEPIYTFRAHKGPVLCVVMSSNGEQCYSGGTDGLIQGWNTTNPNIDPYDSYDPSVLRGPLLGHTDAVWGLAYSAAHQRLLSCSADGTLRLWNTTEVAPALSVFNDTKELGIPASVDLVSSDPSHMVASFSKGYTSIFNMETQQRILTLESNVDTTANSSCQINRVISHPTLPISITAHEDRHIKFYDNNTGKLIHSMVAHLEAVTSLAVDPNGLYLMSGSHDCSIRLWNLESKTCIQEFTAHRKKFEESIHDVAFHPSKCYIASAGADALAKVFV

No constants are given. Whether binding was seen depends on the method and setting. In cells and extracts the contact can be indirect. Some entries that bind do so weakly or less than the wild type. Sequences can lack the tags named with a protein.

B1: S/G2 nuclear autoantigen (SG2NA) (protein, UniProt Q13033 1-797)
chain: MDELAGGGGGGPGMAAPPRQQQGPGGNLGLSPGGNGAAGGGGPPASEGAGPAAGPELSRPQQYTIPGILHYIQHEWARFEMERAHWEVERAELQARIAFLQGERKGQENLKKDLVRRIKMLEYALKQERAKYHKLKYGTELNQGDLKMPTFESEETKDTEAPTAPQNSQLTWKQGRQLLRQYLQEVGYTDTILDVRSQRVRSLLGLSNSEPNGSVETKNLEQILNGGESPKQKGQEIKRSSGDVLETFNFLENADDSDEDEENDMIEGIPEGKDKHRMNKHKIGNEGLAADLTDDPDTEEALKEFDFLVTAEDGEGAGEARSSGDGTEWDKDDLSPTAEVWDVDQGLISKLKEQYKKERKGKKGVKRANRTKLYDMIADLGDDELPHIPSGIINQSRSASTRMTDHEGARAEEAEPITFPSGGGKSFIMGSDDVLLSVLGLGDLADLTVTNDADYSYDLPANKDAFRKTWNPKYTLRSHFDGVRALAFHPVEPVLVTASEDHTLKLWNLQKTVPAKKSASLDVEPIYTFRAHIGPVLSLAISSNGEQCFSGGIDATIQWWNMPSPSVDPYDTYEPNVLAGTLVGHTDAVWGLAYSGIKNQLLSCSADGTVRLWNPQEKLPCICTYNGDKKHGIPTSVDFIGCDPAHMVTSFNTGSAVIYDLETSQSLVILSSQVDSGLQSNNHINRVVSHPTLPVTITAHEDRHIKFFDNKTGKMIHSMVAHLDAVTSLAVDPNGIYLMSGSHDCSIRLWNLDSKTCVQEITAHRKKLDESIYDVAFHSSKAYIASAGADALAKVFV
For B1, in test [1], the binding entry is “no binding”.

B2: Mob3/phocein (protein, UniProt Q9Y3A3 1-225)
chain: MVMAEGTAVLRRNRPGTKAQDFYNWPDESFDEMDSTLAVQQYIQQNIRADCSNIDKILEPPEGQDEGVWKYEHLRQFCLELNGLAVKLQSECHPDTCTQMTATEQWIFLCAAHKTPKECPAIDYTRHTLDGAACLLNSNKYFPSRVSIKESSVAKLGSVCRRIYRIFSHAYFHHRQIFDEYENETFLCHRFTKFVMKYNLMSKDNLIVPILEEEVQNSVSGESEA
Turning to B2, the binding result in test [2] and in test [3] was “binds” each time.

The values are drawn from article PMC3217859.
